Reference: paper PMC4336329 (PLoS ONE, 2015)
In all, about 310,000 compounds went through this assay and about 14,000 (4.5%) showed an effect of 50% or more. The effect is printed as a negative number. The list shows a part of the results.

What follows are compounds tested against human ether-à-go-go-related gene (hERG) potassium channel (human, UniProt Q12809) (assay: primary screen, population patch clamp on CHO cells stably expressing hERG).
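Also: peak tail current of the secondary pulse compared with the same well before compound.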

Sequence of human ether-à-go-go-related gene (hERG) potassium channel (Q12809 whole entry, looked up): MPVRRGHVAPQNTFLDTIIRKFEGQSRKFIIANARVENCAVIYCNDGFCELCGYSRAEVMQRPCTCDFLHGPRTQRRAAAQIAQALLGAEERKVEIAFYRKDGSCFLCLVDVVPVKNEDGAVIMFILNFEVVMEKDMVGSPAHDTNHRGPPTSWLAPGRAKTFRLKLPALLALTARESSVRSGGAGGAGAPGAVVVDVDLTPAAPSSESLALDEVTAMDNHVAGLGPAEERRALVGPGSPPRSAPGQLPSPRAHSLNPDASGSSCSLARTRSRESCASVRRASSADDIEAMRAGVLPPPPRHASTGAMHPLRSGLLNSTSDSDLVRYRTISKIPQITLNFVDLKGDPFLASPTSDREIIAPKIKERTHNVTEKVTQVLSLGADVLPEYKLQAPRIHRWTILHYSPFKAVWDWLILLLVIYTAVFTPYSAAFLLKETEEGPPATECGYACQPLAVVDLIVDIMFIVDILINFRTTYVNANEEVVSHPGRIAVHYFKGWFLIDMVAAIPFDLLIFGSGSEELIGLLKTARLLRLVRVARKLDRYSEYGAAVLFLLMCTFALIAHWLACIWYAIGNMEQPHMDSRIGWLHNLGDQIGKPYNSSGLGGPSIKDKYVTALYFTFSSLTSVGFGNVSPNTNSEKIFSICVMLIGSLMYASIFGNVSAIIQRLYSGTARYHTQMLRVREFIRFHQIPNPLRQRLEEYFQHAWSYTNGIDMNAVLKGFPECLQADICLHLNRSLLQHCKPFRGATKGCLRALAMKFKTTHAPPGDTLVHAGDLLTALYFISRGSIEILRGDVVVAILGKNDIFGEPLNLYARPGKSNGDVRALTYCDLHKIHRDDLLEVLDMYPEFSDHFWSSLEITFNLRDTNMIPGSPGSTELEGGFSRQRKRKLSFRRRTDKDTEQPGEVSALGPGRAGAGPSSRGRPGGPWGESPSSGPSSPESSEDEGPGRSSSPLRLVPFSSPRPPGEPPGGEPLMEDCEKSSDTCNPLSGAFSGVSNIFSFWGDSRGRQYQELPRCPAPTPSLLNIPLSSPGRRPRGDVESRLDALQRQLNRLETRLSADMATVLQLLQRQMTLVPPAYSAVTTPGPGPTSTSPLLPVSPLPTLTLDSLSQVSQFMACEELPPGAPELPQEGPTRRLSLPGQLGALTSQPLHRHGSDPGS

SMILES	hERG current change (%, negative = inhibition) at 10uM
CCc1nn(CC(=O)NCCN2CCN(C)CC2)c(=O)c2cc3occc3n12	2.39%
CCOc1ccccc1/C=c1\sc2ncnn2c1=O	-22.7%
Cc1ccc(NS(=O)(=O)c2ccc(C(=O)NCc3cccnc3)cc2)cc1	-4.14%
CC(C)(C)Cc1nc(-c2ccccn2)no1	4.02%
O=C(Nc1ncc([N+](=O)[O-])s1)c1cccc([N+](=O)[O-])c1	4.76%
Cc1cccc(OCc2n[nH]c(=S)n2Cc2ccccc2)c1	11.8%
CCCCc1ccc(S(=O)(=O)N2CCC3(CC2)OCCO3)cc1	-5.08%
COc1ccc(C2/C(=C(/O)c3ccc(Br)cc3)C(=O)C(=O)N2C)cc1OC (stereo not shown)	7.56%
O=C(NCCc1c[nH]c2ccccc12)c1ccc([N+](=O)[O-])cc1	-11.2%
CC(=O)c1ccc(N2CCN(C(=S)Nc3ccc(Oc4ccccc4)cc3)CC2)cc1	1.84%
Clc1ccccc1OCCCCN1CCCCC1	-8.1%
CCCCCN(C(=O)NC(=O)Nc1ccccc1C)S(=O)(=O)c1ccccc1	19.1%
COC(=O)c1ccc(OC)c(OC)c1Cl	4.66%
O=C(NCC1CCCO1)c1onc(CSc2cccc3ccccc23)c1C(=O)O (stereo not shown)	14.4%
COc1ccccc1NC1=Nc2cccc3cccc1c23	-10.6%
CC(=C/C(=O)O)/C(=C/c1ccccc1)C(=O)O	15.6%
NC(=O)c1nsc(C(=O)N(CC(=O)NC2CCCC2)c2cnc3ccccc3c2)c1N	-4.05%
CCN1C(=O)/C(=C/c2cccs2)N(C)C1=S	-7.99%
COc1ccc(C(CNC(=O)c2cccc(S(=O)(=O)NCc3ccccc3)c2)N(C)C)cc1 (stereo not shown)	-24.3%
CC(=O)c1ccc(N2CCN(C(=O)CCCn3c(=S)[nH]c4cc5c(cc4c3=O)OCO5)CC2)cc1	3.87%
CCOc1cc(C(=O)NC(C)C2CCCO2)cc(OCC)c1OCC (stereo not shown)	10.7%
O=C(Nc1nccs1)[C@@H]1CCCN1C(=O)c1cccs1	4.23%

SMILES	hERG current change (%, negative = inhibition) at 10uM
O=C(/C=C/c1cccnc1)c1ccc(NC(=O)c2cccc(Br)c2)cc1	-13.8%
Cc1ccc(C(C)C)c(OCc2ccc(C(=O)N/N=C/c3ccc(C(=O)O)cc3)cc2)c1	5.45%
O=C(Cn1cc([N+](=O)[O-])ccc1=O)NC1CCCCC1	-0.552%
O=c1c2nccnc2[nH]c(=S)n1Cc1ccccc1Cl	30.6%
CC1(C)CSC(=NCc2ccccc2)N1C(=O)c1cccc([N+](=O)[O-])c1	-19.2%
CC(NC(=O)CN1C(=O)NC2(CCc3ccccc32)C1=O)c1ccc2c(c1)OCCO2 (stereo not shown)	10.8%
CCOc1ccc(Nc2oc(-c3ccccc3Cl)nc2C#N)cc1	5.77%
CC(OC(=O)CN1C(=O)c2ccccc2C1=O)C(=O)NC1(C#N)CCCCC1 (stereo not shown)	0.311%
CC1CCCN(C(=O)C2COc3ccccc3O2)C1 (stereo not shown)	13.2%
C/C(=N\N=C1\NC(=O)C(CC(=O)O)S1)c1ccccn1 (stereo not shown)	5.04%
O=[N+]([O-])c1ccc(Nc2nc(NCCO)nc(N3CCCC3)n2)cc1	-58.3%
Cl.ClCC1=Nc2cccc3cccc(c23)N1	-4.42%
COc1cc(C(=O)O)cc(Br)c1OC1CCCC1	20.6%
COc1ccc(C2C(C(=O)O)CC(=O)N2c2ccc(OC)cc2)cc1 (stereo not shown)	10.9%
CCSc1nc(C)c(CC)c(C)c1C(N)=O	7.33%
CN(Cc1ccon1)C(=O)CC1C(=O)NCCN1Cc1cccc(F)c1F (stereo not shown)	1.83%
CCOC(=O)c1sc(NC(=O)Nc2ccc(Cl)cc2)cc1C	22.5%
COc1ccc(NC(=O)C(c2ccc(OC)cc2)N(Cc2ccco2)C(=O)CC2NC(=O)NC2=O)cc1 (stereo not shown)	-5.09%
CCN(CC(=O)Nc1c(F)cccc1F)C(=O)CCc1ccc(OC)cc1	24.6%
COc1ccc(N(C)S(=O)(=O)c2cccc(C(=O)OC(C(=O)Nc3cc(C)cc(C)c3)c3ccccc3)c2)cc1 (stereo not shown)	18.9%
O=C(CN1CCCCC1)Nc1nc(-c2ccc(F)c(F)c2)cs1	-15.1%
O=C(Nc1nnc(S(=O)(=O)N2CCCCC2)s1)c1ccccc1Br	9.3%

SMILES	hERG current change (%, negative = inhibition) at 10uM
Cc1c(NS(=O)(=O)c2ccc(NCCN3CCOCC3)c([N+](=O)[O-])c2)c(=O)n(-c2ccccc2)n1C	7.45%
O=c1[nH]c(-c2ccc(O)cc2)nc2scc(-c3cccs3)c12	15.8%
NC(=O)NC(CC(=O)NCCc1ccc(S(N)(=O)=O)cc1)c1ccccc1Cl (stereo not shown)	6.81%
Cc1ncsc1C(=O)Nc1cccc(C(F)(F)F)c1	-7.72%
C[C@H](NC(=O)c1ccccc1)C(=O)N1CCN(c2ccccc2)CC1	-2.4%
C=C1C(=O)[C@@]23[C@H](O)C[C@@H]4C(C)(C)CC[C@H](O)[C@@]4(C)[C@@H]2CC[C@@H]1[C@H]3O	-9.9%
Cc1cccc(NC(=O)Nc2cccc(C#N)c2)n1	-10.9%
O=C(CN(Cc1ccccc1Cl)C(=O)c1csnn1)NCc1ccccc1	-24%
Cc1cccc(C(=O)Nc2cc(=O)n(C)c(=O)n2C)c1	15.6%
O=C(NCCSc1ccccc1)c1cncc(Br)c1	-0.151%
COc1cc(-c2n[nH]c(=S)n2/N=C/c2cccn2C)cc(OC)c1OC	3.01%
COc1ccc(S(=O)(=O)c2ccccc2)cc1NS(=O)(=O)c1cccc(C(=O)O)c1	-6.71%
Cc1cc(Br)cc(C)c1NC(=O)c1ccccc1[N+](=O)[O-]	14.3%
COc1ccc(N2CC(NS(=O)(=O)c3cccs3)CC2=O)cc1OC (stereo not shown)	3.82%
Cc1ccc(Cl)cc1N1CCN(C(=O)c2cc3c(=O)n(C)c4ccccc4c3n2C)CC1	4.48%
COC(=O)c1[nH]c2cccc(Cl)c2c1NC(=O)CN(C)C1CCCCC1	-12.3%
O=C(Nc1cccc(-n2cnnn2)c1)C1CCCN(Cc2cccc(C(F)(F)F)c2)C1 (stereo not shown)	-59.8%
COCCn1nnnc1C(c1cc2ccc(OC)cc2[nH]c1=O)N1CCc2ccccc2C1 (stereo not shown)	-42.4%
Cc1cccc(NC(=S)NC(=O)/C=C/c2ccco2)n1	8.29%
CCN(C(=O)COC(=O)c1nc2nc(C)cc(C)n2n1)C1CCCCC1	3.77%
Cc1cccc(N=Nc2c(C)[nH]n(-c3ccccc3)c2=O)c1	12.2%
O=C(NC1CCCC1)c1cc(-c2ccc(F)cc2)on1	-4.51%

SMILES	hERG current change (%, negative = inhibition) at 10uM
O=C(NCCc1ccc(Cl)cc1)c1ccc(CS(=O)Cc2ccccc2Cl)o1 (stereo not shown)	-30%
O=[N+]([O-])c1cccc(Cl)c1NCCNc1ncc(C(F)(F)F)cc1Cl	15.6%
CC(OC(=O)CCc1nc2ccccc2c(=O)[nH]1)C(=O)c1ccc(C(C)(C)C)cc1 (stereo not shown)	-12.3%
Cn1c(SCC(=O)NNC(=O)c2ccccc2Br)nnc1C(F)(F)F	11.7%
CN(Cc1ccon1)Cc1cn(C)nc1-c1ccc(Oc2ccccc2)cc1	-20.6%
O=C(O)C1CCCCC1C(=O)Nc1cnn(Cc2ccccc2)c1 (stereo not shown)	0.545%
Cc1cc(C2=NNC(=NC3CC3)SC2)c(C)n1Cc1ccco1	-47.5%
Cc1ccc(CC(=O)Nc2ccccc2N2CCOCC2)cc1C	-24.6%
COc1ccccc1CNC(=O)COC(=O)c1cccnc1SCC(=O)NCc1ccccc1OC	3.73%
COC(=O)c1sc(N2CCCCC2)c(C#N)c1N	-4.97%
Cc1cccc(N2CCN(C(=O)C3CCCN(S(=O)(=O)c4cnc[nH]4)C3)CC2C)c1 (stereo not shown)	-10.4%
COc1ccc(OCC(=O)C2CC2)c(C#N)c1	2.36%
CN1CCN(CC(=O)Nc2c(C(=O)c3ccccc3)oc3ccccc23)CC1	-78.9%
CCn1cc(C(=O)N(C)c2ccccc2F)c2cc(OC)c(OC)cc2c1=O	18.7%
CSc1ccccc1NC(=O)c1cc(Cl)sc1Cl	-11.5%
COCCCn1c(SCC(=O)NC2CCCC2)nnc1-c1ccco1	9.39%
COc1ccc(CN(C)C(=O)C2CCN(S(=O)(=O)c3cccs3)CC2)cc1F	-42.6%
CS(=O)(=O)N1c2cccc3cccc(c23)S1(=O)=O	15.1%
Cc1ccc(S(=O)(=O)Nc2c3ccccc3nc(=O)n2-c2ccccc2)cc1	24.3%
Cc1ccc(F)c(N=Cc2c(O)c3ccccc3oc2=O)c1	14.1%
Cc1nn(Cc2ccccc2)c(Cl)c1C(=O)NCCc1ccccc1	-0.929%
CCOC(=O)c1ccc(NC(=O)Cn2c(-c3nonc3N)nc3ccccc32)cc1	69.6%
